Measured values as given in PubChem BioAssay AID485281 (National Center for Advancing Translational Sciences (NCATS), 2010).
Out of some 350,000 compounds screened, about 260 (0.074%) were called active. The shares of active, inactive and inconclusive entries below differ from those in the screen. Calls follow the shape of the dose curve; as a rule, active = well fitted inhibition curve with a large enough effect; inconclusive = small, poorly fitted or top-dose-only effect; inactive = no such curve, though single readings can be large or run the other way. Where the call is inconclusive, the potency comes from a doubtful curve fit.

The compounds below were run against Ferritin light chain (Equus caballus) (UniProt P02791) (assay: qHTS Assay for Identification of Novel General Anesthetics). Settings: apoferritin/1-aminoanthracene competitive binding, fluorescence; activity change, negative = displacement: at 77.5 µM (top of the series).
In short: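 Concentration-response curves derived by four-parameter Hill fitting of normalized fluorescence, where compounds displaced 1-AMA from 10 uM horse apoferritin following a brief 10 min room-temperature incubation; propofol titration acted as positive control.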
% is scaled to controls: 0 for no effect and ±100 for the full control effect; potency is read from the fitted curve at half-maximal effect; tags tell the direction and shape of the fitted curve.
Also: nearly all actives have a fitted effect of over 20% in size.

Sequence of UniProt P02791 (P02791 whole entry, looked up): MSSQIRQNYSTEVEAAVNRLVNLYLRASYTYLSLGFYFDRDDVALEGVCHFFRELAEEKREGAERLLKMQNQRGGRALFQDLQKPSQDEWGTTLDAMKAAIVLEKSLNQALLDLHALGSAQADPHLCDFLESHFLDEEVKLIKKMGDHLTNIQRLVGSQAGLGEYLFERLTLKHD

| SMILES | activity change, negative = displacement | Potency |
| --- | --- | --- |
| CC(C)C1N=C2c3ccccc3N=C(SCC(=O)NCc3ccccc3Cl)N2C1=O (stereo not drawn) | inactive: -1.91% |  |
| CCn1c(SCc2ccc(F)cc2Cl)nc(=O)c2c(C(=O)OC)cc(C3CC3)nc21 |  | inconclusive: 39.8 µM [inhibitor, partial curve] |
| N=c1cc(C2(O)CCCCC2)n2c(nc3ccccc32)s1 |  | inconclusive: 28.2 µM [inhibitor, single point] |
| Fc1ccc(Cn2cnc3ccccc32)cc1 |  | inconclusive: 44.7 µM [inhibitor, single point] |
| CCCn1c(=O)c2sccc2n2c(CCCC(=O)Nc3ccc(Oc4ccccc4)cc3)nnc12 |  | inconclusive: 3.16 µM [inhibitor, full curve] |
| N#CC(c1cccc(Cl)c1)c1ncc(C(F)(F)F)cc1Cl (stereo not drawn) |  | inconclusive: 22.4 µM [inhibitor, partial curve] |
| CCc1ccc(-n2nc(CO)c(C(=O)NCC(c3ccccc3)c3ccccc3)n2)cc1 | inactive: -5.68% |  |
| Cc1ccc(Cc2cnc(NC(=O)C3CCCO3)s2)cc1 (stereo not drawn) |  | inconclusive: 17.8 µM [inhibitor, partial curve] |
| Cc1c(CC(=O)N2CCC(C(N)=O)CC2)c(=O)oc2cc3c(cc12)CCC1(CCCCC1)O3 |  | inconclusive: 39.8 µM [inhibitor, partial curve] |
| CCOC(=O)N1CCN(C(=O)c2ccc(NS(=O)(=O)c3ccc(F)cc3)cc2)CC1 | inactive: -11.4% |  |
| COc1ccc(-c2noc(CCCC(=O)NCCc3ccccc3)n2)cc1OC | inactive: -17.7% |  |
| CCCCN=C1NN=C(c2ccc3c(c2)OCCO3)CS1 |  | inconclusive: 25.1 µM [inhibitor, single point] |
| CC(C)c1ccc(OCc2nc(-c3ccccn3)no2)c(Br)c1 |  | inconclusive: 25.1 µM [inhibitor, partial curve] |
| Cc1ccc(SCC(=O)OCC(=O)N(C)CC(=O)Nc2ccccc2Cl)cc1C | inactive: -13.3% |  |
| CN(Cc1ccccc1)C(=O)c1cccc(NC(=O)c2nsc3ccccc23)c1 |  | inconclusive: 7.08 µM [inhibitor, partial curve] |
| COc1cc(C)ccc1OCc1cc(C(=O)N2CCC(c3ccc(F)cc3)C2)no1 (stereo not drawn) |  | inconclusive: 44.7 µM [inhibitor, single point] |
| COc1ccc(CNc2nc3ccccc3n2CCN2CCCCC2)c(OC)c1 |  | inconclusive: 50.1 µM [inhibitor, single point] |
| COc1ccc(OCCC(=O)OCC(=O)NC(=O)NC(C)(C)C)cc1 |  | inconclusive: 22.4 µM [inhibitor, partial curve] |
| COc1cc(NC(=O)CSCC(=O)Nc2cccc(C(F)(F)F)c2)c(Cl)cc1Cl |  | inconclusive: 20 µM [inhibitor, partial curve] |
| COC(=O)c1ccc(COc2ccc(C(=O)c3ccccc3)cc2)o1 |  | inconclusive: 28.2 µM [inhibitor, partial curve] |
| c1ccn(-c2ncnc3sc4c(c23)CCCC4)c1 |  | inconclusive: 50.1 µM [inhibitor, single point] |
| CCOc1ccc(-n2c(C)cc(/C=N\NC(=O)CC(=O)NC3CCCCC3)c2C)cc1 |  | inconclusive: 50.1 µM [inhibitor, single point] |

| SMILES | activity change, negative = displacement | Potency |
| --- | --- | --- |
| CCOC(=O)c1[nH]c(C)c(CCC(=O)N2CCN(c3cccc(C)c3C)CC2)c1C |  | inconclusive: 44.7 µM [inhibitor, single point] |
| CCCCCCCCOC(=O)C1=C(C)Nc2nnnn2C1c1cccs1 (stereo not drawn) |  | inconclusive: 11.2 µM [inhibitor, single point] |
| COCCOC(=O)c1c(C)nc(SCC(=O)Nc2ccc(OC)cc2)c(C#N)c1-c1ccco1 |  | inconclusive: 28.2 µM [inhibitor, partial curve] |
| COc1ccc(C(=O)C2CCN(CC(=O)Nc3cc(C)cc(C)c3)CC2)cc1 | inactive: -11.6% |  |
| CCCCC(CC)CNC(=O)c1cccs1 (stereo not drawn) |  | inconclusive: 17.8 µM [inhibitor, partial curve] |
| CC(C)c1cc(NC(=O)c2ccccc2)cc(C(C)C)c1O |  | inconclusive: 44.7 µM [inhibitor, partial curve] |
| CS(=O)(=O)NCCCCNc1ccc(C(F)(F)F)cc1[N+](=O)[O-] |  | inconclusive: 35.5 µM [inhibitor, single point] |
| Cc1ccc(CSc2nc(-c3ccc(C(C)(C)C)cc3)nc3cc(=O)[nH]n23)cc1 |  | inconclusive: 28.2 µM [inhibitor, single point] |
| COc1cccc(CCNC(=O)CCc2nnc(-c3ccc4c(c3)OCO4)o2)c1 |  | inconclusive: 39.8 µM [inhibitor, single point] |
| CCn1c(Cn2nnc(-c3ccccc3)n2)nnc1SCC(=O)Nc1cccc(C(C)=O)c1 |  | inconclusive: 28.2 µM [inhibitor, partial curve] |
| CC1CCCC(NC(=O)Nc2cccs2)C1C (stereo not drawn) |  | inconclusive: 31.6 µM [inhibitor, partial curve] |
| CCN1CCCC1Cn1cnc2c([nH]c3cccc(Cl)c32)c1=O (stereo not drawn) | inactive: -15% |  |
| CCOC(=O)c1c(C)oc2c1c(C(c1ccncc1)N1CCOCC1)c(O)c1ccccc12 (stereo not drawn) |  | inconclusive: 44.7 µM [inhibitor, single point] |
| C/C(NCc1ccccc1)=C(\C#N)C(=O)NCc1ccccc1 |  | inconclusive: 3.98 µM [inhibitor, full curve] |
| CC(C)c1ccc(Oc2cccc(C(=O)/C(C#N)=C/N(C)C)c2)cc1 |  | inconclusive: 20 µM [inhibitor, partial curve] |
| CCOc1ccc(CN2C(=O)c3ccccc3Sc3ccc(C(=O)OC)cc32)cc1 | inactive: -7.09% |  |
| Cc1c(C(=O)OCC2CCCO2)[nH]c2c1C(=O)CC(c1ccco1)C2 (stereo not drawn) | inactive: -12.3% |  |
| Cc1cccc(C)c1NC(=O)C(C)c1ccc(-c2ccccc2)c(F)c1 (stereo not drawn) | inactive: -5.46% |  |
| Cc1ccccc1CNC(=O)Nc1cccs1 |  | inconclusive: 39.8 µM [inhibitor, single point] |
| COC(=O)C1=C(C)N=c2s/c(=C/c3ccoc3)c(=O)n2C1c1ccccc1 (stereo not drawn) |  | inconclusive: 8.91 µM [inhibitor, partial curve] |
| Cc1ccc(O)c(NC(=O)C2CC(c3cccc(Br)c3)=NO2)c1 (stereo not drawn) |  | inconclusive: 22.4 µM [inhibitor, partial curve] |
